# Measured values as given in PubChem BioAssay AID2546 (National Center for Advancing Translational Sciences (NCATS), 2010).
# The whole screen tested about 310,000 compounds, of which about 11,000 (3.5%) were called active. Inconclusive results, whose numbers are uncertain, are shown with a selection of clear calls. Calls come from the whole dose curve; as a rule, active = well fitted inhibition curve with a large enough effect; inconclusive = small, poorly fitted or top-dose-only effect, or effect the other way; inactive = flat fitted curve, though single readings scatter. No potency is given beside an inconclusive call; the fits are too rough.
# Assay: VP16 counterscreen qHTS for inhibitors of ROR gamma transcriptional activity;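 note: Gal4-VP16 expression switched on by copper sulfate through the metallothionein promoter; nearly all actives have a fitted effect of over 50% in size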
# Conditions: Drosophila S2 Gal4-VP16 UAS-luciferase, luminescence, 20 h; series mostly up to 53.6 µM
# From the text: NIH Molecular Libraries Probe Production Network [MLPCN]
# NIH Chemical Genomics Center [NCGC]
# Assay Provider: Dan Littman, New York University
# The retinoic acid-related orphan receptor (ROR) gamma is a transcription factor that has a central role in the differentiation of Th17 cells, a subset of T helper cells that secrete the inflammatory cytokines IL-17, IL-17F, and IL-22. Th17 cells have been implicated in graft versus host disease, autoimmune disease and asthma. ROR gamma is induced in naive T helper cells in the presence of TGF-beta combined with IL-6, IL-21, or IL-23, and thereafter directs the expression of the Th17 lineage cytokines. To identify nonspecific inhibitors, a Drosophila Schneider cell line was stably transfected with two vectors: a gene expressing a fusion of the Gal4 DNA binding domain and VP16 transactivation domain under the control of the metallothionine promoter and a Photinus luciferase reporter regulated by the Gal4 binding site enhancer, UAS. […] Small molecule inhibitors that inhibit components common to the RORgt and VP16 assays, such as the Gal4 DNA binding domain or the UAS luciferase reporter, will be active in both assays and thus scored as nonspecific.
# For screening, 600 cells in 4 uL/well were dispensed into white solid 1536-well plates (Grenier) using a solenoid-based dispenser. Following transfer of 23 nL compound or DMSO vehicle by a pin tool, the plates were incubated 1 hr at ambient temperature, and 1 uL/well copper sulfate (700 uM final concentration) was added. The plates were centrifuged 15 s at 1000 RPM and incubated 20 hr at ambient temperature. After addition of 1.5 uL Photinus luciferase detection reagent, the plates were incubated 10 min at ambient temperature and then read by a ViewLux (Perkin Elmer) to detect luminescence.
# Potency is the fitted concentration of half-maximal effect; tags give direction and shape of the fitted curve.
row,Compound,Potency
1,CCOc1ccc(NC(=O)CCCc2cc(-c3ccc(OCC)cc3)on2)cc1,active: 1.26 µM
2,Nc1cccc2c1C(=O)N(CCOc1ccccc1F)C2=O,"inconclusive [inhibitor, partial curve]"
3,Cc1ccc(C)c(Cn2cnc3c(cnn3C(C)(C)C)c2=O)c1,"inconclusive [inhibitor, single point]"
4,CCOC(=O)c1cnc2ccc(OCC)cc2c1NCc1ccccc1,active: 5.01 µM
5,CCN=c1scc(-c2ccco2)n1/N=C/c1ccc(O)cc1,active: 0.501 µM
6,COc1ccc(S(=O)(=O)Nc2ccc(Cc3ccncc3)cc2)cc1OC,active: 7.94 µM
7,CCN1C(=NCC2CC2)N[C@@H](c2ccccc2)C(C(=O)OC)=C1C,inactive
8,COc1cc(CNc2ccc3[nH]c(=O)[nH]c3c2)ccc1OCc1cccc(C)c1,inactive
9,O=C(Nc1nc2ccccc2[nH]1)c1ccccc1O,active: 6.31 µM
10,Oc1cc2c(cc1C(c1ccc(Br)cc1)N1CCCC1)OCO2 (configuration not stated),inactive
11,Cc1cc2nc(-c3ccc(=O)[nH]c3)n(Cc3ccccc3)c2cc1C,inactive
12,CC1(C)Cc2c(c(N3CCOCC3)nc3sc(-c4ccc(C(=O)O)o4)c(N)c23)CO1,inactive
13,CN(C)S(=O)(=O)c1ccc(C(=O)NCCOc2ccccc2)cc1,"inconclusive [activator, partial curve]"
14,CCCN(Cc1cc2ccc(C)cc2[nH]c1=O)C(=O)c1cccnc1,inactive
15,CC(C)C[C@H](NC(=O)c1[nH]cnc1C(=O)Nc1ccc(CNC(=O)OC(C)(C)C)cc1)C(=O)OCc1ccccc1,"inconclusive [inhibitor, single point]"
16,CC(=O)c1cccc(NC(=O)c2c(F)c(F)c(F)c(F)c2F)c1,"inconclusive [inhibitor, single point]"
17,C=CCn1c(-c2ccc(F)cc2)n[nH]c1=S,"inconclusive [inhibitor, single point]"
18,CN(Cc1c(F)cccc1Cl)C(=O)CNC(=O)c1cccs1,"inconclusive [inhibitor, single point]"
19,CC(C)c1ccc2oc(-c3cc(N)ccc3O)nc2c1,active: 22.4 µM
20,COc1ccccc1C(=O)CSc1nnc(-c2ccco2)o1,"inconclusive [inhibitor, single point]"
21,COc1ccccc1-c1ccc2ncnc(NCc3ccccc3)c2c1,"inconclusive [inhibitor, single point]"
22,CC(=O)n1c2ccccc2c2nc(NC(C)C)sc21,"inconclusive [inhibitor, single point]"
23,CC(=O)c1cc(NC(=O)c2ccc(C)cc2)c(=O)oc1C,"inconclusive [inhibitor, single point]"
24,C(=C\c1ccccc1)/C=N/Nc1nncc(-c2ccccc2)n1,active: 3.16 µM
25,COc1ccc(-n2ncc3c(N4CCC(C)CC4)ncnc32)cc1,"inconclusive [inhibitor, full curve]"
26,Cc1ccc(C(=O)Nc2ccccc2C(=O)O)cc1S(=O)(=O)Nc1ccccc1,inactive

row,Compound,Potency
1,CCC/C(O)=C1\C(=O)CC(c2ccccc2)CC1=NC (configuration not stated),"inconclusive [activator, single point]"
2,COc1ccccc1-c1c(C)nn2c(NCCN3CCCC3)cc(C)nc12,active: 7.08 µM
3,O=C(Cc1ccccc1)n1nc(-c2ccco2)nc1SCc1ccccc1,inactive
4,C(=N\Nc1ccccn1)/c1ccc2c(c1)OCCO2,"inconclusive [inhibitor, single point]"
5,Cc1ccc(Nc2cc(C)c(O)c(C)c2)cc1,"inconclusive [inhibitor, single point]"
6,Cc1nn(-c2ccc(F)cc2)c(Cl)c1/C=N/NC(=O)c1ccc(O)cc1,active: 2.24 µM
7,COc1ccc(/C=N/Nc2nc3ccccc3o2)cc1O,"inconclusive [inhibitor, single point]"
8,COC(=O)c1sccc1NC(=O)/C=C/c1ccc(Cl)cc1Cl,"inconclusive [activator, full curve]"
9,Cn1c(=O)c2c(nc(NCc3ccco3)n2C/C=C/c2ccccc2)n(C)c1=O,active: 4.47 µM
10,CCC(O)CNc1nc(-n2nc(C)cc2C)nc2sc3c(c12)CC(C)(C)OC3 (configuration not stated),active: 3.98 µM
11,COc1ccc(OC)c(NC(=S)Nc2ccccc2)c1,active: 20 µM
12,COc1ccccc1NS(=O)(=O)c1cccs1,inactive
13,O=c1cc(COc2ccccc2[N+](=O)[O-])nc2sccn12,inactive
14,CCOc1ccc2nc(Nc3nc4ccc(NC(C)=O)cc4s3)sc2c1,active: 7.08 µM
15,O=C(CCN1CCN(c2ccccc2)CC1)N/N=C/c1ccccc1OC(F)F,"inconclusive [inhibitor, single point]"
16,CC(=O)c1cccc(NC(=O)Nc2ccc(C(=O)N3CCCC3)cc2)c1,"inconclusive [inhibitor, partial curve]"
17,C=CCNC(=S)NCc1ccccc1OC,"inconclusive [inhibitor, single point]"
18,O=C(CNS(=O)(=O)c1ccccc1)OCC(=O)c1ccc([N+](=O)[O-])cc1,"inconclusive [activator, single point]"
19,O=C(/C=C/c1ccccc1)NC(NC(=S)Nc1ccc(Cl)cc1Cl)C(Cl)(Cl)Cl (configuration not stated),active: 5.01 µM
20,O=C1NC(=S)N(C(=O)c2ccc(F)cc2)/C1=C/c1cccnc1,inactive
21,COc1ccc(C(=O)Nn2c(SCC(=O)NC3CCCCC3)nc3ccccc3c2=O)cc1,active: 12.6 µM
22,COCCNC(=S)NC(=O)c1ccc(C(C)(C)C)cc1,active: 11.2 µM
23,CCc1cc(-c2n[nH]c(=S)n2CC)cs1,active: 10 µM
24,N#C/C(=C(/O)COC(=O)CCCNC(=O)c1ccc(Cl)cc1)c1nc2ccccc2[nH]1,"inconclusive [inhibitor, single point]"
25,CC1(C)Cc2ccccc2C(/C(=N\Nc2cccc(Cl)c2)C(N)=O)=N1,"inconclusive [inhibitor, single point]"
26,CC(C)CC(=O)NC(=S)Nc1ccccc1F,"inconclusive [inhibitor, single point]"

row,Compound,Potency
1,COc1ccc(S(=O)(=O)N2CCC(n3cnc4cc(C(F)(F)F)ccc43)CC2)cc1,"inconclusive [inhibitor, single point]"
2,CN1CCN(CC(O)(c2ccc(Cl)cc2)c2ccc(Cl)cc2)CC1,"inconclusive [inhibitor, single point]"
3,Cc1ccc(C)c(-n2c(SCC(=O)O)nc3sc4c(c3c2=O)CCCC4)c1,inactive
4,Cc1ccc2nc(-c3ccc(NC(=O)CN(C)S(=O)(=O)c4ccccc4)cc3)sc2c1,"inconclusive [inhibitor, full curve]"
5,Cc1cc[n+](-c2ccccc2)c2ccccc12,active: 11.2 µM
6,O=C(Nc1ccc(-c2ccc3nncn3n2)cc1)C1CCCC1,inactive
7,CCOc1c(S(=O)(=O)N2CCCC2)ccc(Cl)c1Cl,"inconclusive [inhibitor, single point]"
8,CC(C(=O)NCc1cccnc1)c1ccc([N+](=O)[O-])cc1 (configuration not stated),inactive
9,CC1(CC(=O)N/N=C/c2ccc(OCc3ccc(Cl)cc3Cl)cc2)OCCCO1,"inconclusive [inhibitor, single point]"
10,CC1=NOC(=O)/C1=C\c1ccc(-c2ccc(Br)cc2)o1,"inconclusive [inhibitor, single point]"
11,CC(=O)Nc1ccc(S(=O)(=O)N2CCN(C(=O)Cc3ccccc3)CC2)cc1,inactive
12,COc1ccc(-c2nc(C#N)c(N3CCCCCC3)o2)cc1,"inconclusive [inhibitor, full curve]"
13,CC(C)(C)OC(=O)N[C@@H](Cc1ccccc1)c1nnc(S(=O)(=O)Cc2ccccc2)o1,active: 4.47 µM
14,CC1(C)[C@@H](O)CC[C@]2(C)C3C(O)C=C4[C@H]5C[C@@](C)(CO)CC[C@]5(C)CC[C@]4(C)[C@]3(C)CC[C@@H]12 (some centres not stated),inactive
15,COc1cc(/C=C2\SC(=S)N(Nc3ccccc3)C2=O)ccc1O,"inconclusive [activator, partial curve]"
16,CN(C)c1ccc(/C=C/c2ccc3ccccc3n2)cc1,active: 2.82 µM
17,S=c1[nH]nc(-c2cccc(Cl)c2)n1/N=C/c1ccco1,"inconclusive [inhibitor, single point]"
18,CC(=O)c1cc(-c2ccccc2)n(CCC(=O)NC2CCCCCCC2)c1C,inactive
19,Nc1cc(S(=O)(=O)Nc2ccccc2Cl)ccc1N1CCOCC1,"inconclusive [inhibitor, single point]"
20,CCOc1ccc(/C(CCC(=O)O)=N/NC(=S)NCCc2ccccc2)cc1,"inconclusive [inhibitor, single point]"
21,O=C(NC(=S)NCC1CCCO1)c1ccc(Cl)cc1Cl (configuration not stated),"inconclusive [inhibitor, single point]"
22,CC(=O)c1ccc(OCCNS(=O)(=O)c2ccc(-n3cnnn3)c(C)c2)cc1,"inconclusive [inhibitor, single point]"
23,COc1cccc(-c2nc(NCCN3CCOCC3)c3ccccc3n2)c1O,inactive
24,COc1cc2c(cc1NC(=S)Nc1cccc(C(F)(F)F)c1)oc1ccccc12,"inconclusive [inhibitor, single point]"
25,Cc1cc(C(=O)NNC(=S)Nc2cccc(C(F)(F)F)c2)nn1C,active: 11.2 µM
